Reference: the supplement of paper PMC12067230
Single values of this set are uncertain.

Assay: amyloid nucleation score relative to library mode (yeast Sup35 reporter selection) (log enrichment difference); higher = more amyloid nucleation; sequences are the first 22 residues of the Bri2 peptide extended by up to 12 random residues
Details: random library (experiment): 2;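 active = nucleation score significantly above 0 at FDR 0.05; inactive = not significantly above 0 or absent from output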
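Also: [psi-pin-] Saccharomyces cerevisiae expressing SupN fusions, induced by 100 µM Cu2SO4, selected 7 d at 30 °C without adenine and uracil, scored by deep sequencing of output versus input.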

Which amyloid nucleation score does the source give for EASNCFAIRHFENKFAVETLICRNMVHFTYKCVQ here?
The amyloid nucleation score was 1.97.

With EASNCFAIRHFENKFAVETLICRNPWPRSREAAM as the sequence, how does the amyloid nucleation score read?
The amyloid nucleation score was -0.0392.

Which amyloid nucleation score does the source give for EASNCFAIRHFENKFAVETLICRNRI here?
Its amyloid nucleation score is “inactive”.

For EASNCFAIRHFENKFAVETLICRNRILDGGLWTS, which amyloid nucleation score is on record?
The amyloid nucleation score was 1.56.

With EASNCFAIRHFENKFAVETLICRNSEYNYNTHHF as the sequence, how does the amyloid nucleation score read?
Its amyloid nucleation score is 3.2.

Which amyloid nucleation score does the source give for EASNCFAIRHFENKFAVETLICRNVG here?
The amyloid nucleation score was “inactive”.

Which amyloid nucleation score does the source give for EASNCFAIRHFENKFAVETLICRNWLTYIKLVSG here?
Its amyloid nucleation score is 0.664.

For EASNCFAIRHFENKFAVETLICRPACQVFLRLLR, which amyloid nucleation score is on record?
The amyloid nucleation score was “inactive”.

With EASNCFAIRHFENKFAVETLICRPKDE as the sequence, how does the amyloid nucleation score read?
The amyloid nucleation score was “inactive”.

With EASNCFAIRHFENKFAVETLICRPLLRGGALEGR as the sequence, how does the amyloid nucleation score read?
The amyloid nucleation score was “inactive”.

For EASNCFAIRHFENKFAVETLICRPNSVLRVRDTY, which amyloid nucleation score is on record?
Its amyloid nucleation score is “inactive”.

With EASNCFAIRHFENKFAVETLICRPRFYIRFYLIC as the sequence, how does the amyloid nucleation score read?
The amyloid nucleation score was “inactive”.

For EASNCFAIRHFENKFAVETLICRPRTVWVSSALG, which amyloid nucleation score is on record?
Its amyloid nucleation score is “inactive”.

For EASNCFAIRHFENKFAVETLICRPSGNWSRYLER, which amyloid nucleation score is on record?
The amyloid nucleation score was “inactive”.

With EASNCFAIRHFENKFAVETLICRPSSFLSYLGPG as the sequence, how does the amyloid nucleation score read?
The amyloid nucleation score was 2.51.

Which amyloid nucleation score does the source give for EASNCFAIRHFENKFAVETLICRPYSLGVRFRK here?
Its amyloid nucleation score is 0.

Which amyloid nucleation score does the source give for EASNCFAIRHFENKFAVETLICRQC here?
Its amyloid nucleation score is “inactive”.

For EASNCFAIRHFENKFAVETLICRQGDVFLRLLVW, which amyloid nucleation score is on record?
The amyloid nucleation score was “inactive”.

Which amyloid nucleation score does the source give for EASNCFAIRHFENKFAVETLICRQNCILRVMFYC here?
The amyloid nucleation score was “inactive”.

With EASNCFAIRHFENKFAVETLICRQQLRKTNGAMA as the sequence, how does the amyloid nucleation score read?
Its amyloid nucleation score is “inactive”.

For EASNCFAIRHFENKFAVETLICRRCMR, which amyloid nucleation score is on record?
Its amyloid nucleation score is “inactive”.

Which amyloid nucleation score does the source give for EASNCFAIRHFENKFAVETLICRRFYGPSCLCWG here?
Its amyloid nucleation score is “inactive”.

For EASNCFAIRHFENKFAVETLICRRILI, which amyloid nucleation score is on record?
Its amyloid nucleation score is “inactive”.

Same assay, conditions: random library (experiment): 3

With EASNCFAIRHFENKFAVETLICRNKGSGFGTWGS as the sequence, how does the amyloid nucleation score read?
The amyloid nucleation score was 2.56.

For EASNCFAIRHFENKFAVETLICRNRNLVGAGVKG, which amyloid nucleation score is on record?
The amyloid nucleation score was “inactive”.

With EASNCFAIRHFENKFAVETLICRNSGSSSRCKYV as the sequence, how does the amyloid nucleation score read?
The amyloid nucleation score was “inactive”.

For EASNCFAIRHFENKFAVETLICRNVFQFVLHSRL, which amyloid nucleation score is on record?
Its amyloid nucleation score is 0.948.

Which amyloid nucleation score does the source give for EASNCFAIRHFENKFAVETLICRNVFVMGSVCRG here?
Its amyloid nucleation score is 7.08.

For EASNCFAIRHFENKFAVETLICRNWAVYGCGMCM, which amyloid nucleation score is on record?
The amyloid nucleation score was 6.48.

For EASNCFAIRHFENKFAVETLICRPARIRGRCLRR, which amyloid nucleation score is on record?
The amyloid nucleation score was “inactive”.

For EASNCFAIRHFENKFAVETLICRPEER, which amyloid nucleation score is on record?
Its amyloid nucleation score is “inactive”.

With EASNCFAIRHFENKFAVETLICRPGPGSHLVRRG as the sequence, how does the amyloid nucleation score read?
The amyloid nucleation score was 3.21.

With EASNCFAIRHFENKFAVETLICRPHVKP as the sequence, how does the amyloid nucleation score read?
Its amyloid nucleation score is “inactive”.

Which amyloid nucleation score does the source give for EASNCFAIRHFENKFAVETLICRPKMHFGIVSV here?
Its amyloid nucleation score is “inactive”.

For EASNCFAIRHFENKFAVETLICRPLSGRGAVTVV, which amyloid nucleation score is on record?
Its amyloid nucleation score is “inactive”.

For EASNCFAIRHFENKFAVETLICRPNDANHRSRMR, which amyloid nucleation score is on record?
The amyloid nucleation score was -0.111.

With EASNCFAIRHFENKFAVETLICRPRDIWQSNALA as the sequence, how does the amyloid nucleation score read?
The amyloid nucleation score was “inactive”.

Which amyloid nucleation score does the source give for EASNCFAIRHFENKFAVETLICRPRDSGESQTRL here?
The amyloid nucleation score was “inactive”.

For EASNCFAIRHFENKFAVETLICRPRGRRQTAFVR, which amyloid nucleation score is on record?
Its amyloid nucleation score is “inactive”.

Which amyloid nucleation score does the source give for EASNCFAIRHFENKFAVETLICRPVYAAASSGEW here?
The amyloid nucleation score was “inactive”.

Which amyloid nucleation score does the source give for EASNCFAIRHFENKFAVETLICRPWTS here?
Its amyloid nucleation score is “inactive”.

For EASNCFAIRHFENKFAVETLICRQAKPLHGSGTG, which amyloid nucleation score is on record?
The amyloid nucleation score was -0.0526.

For EASNCFAIRHFENKFAVETLICRQCKRMRVWTRC, which amyloid nucleation score is on record?
Its amyloid nucleation score is “inactive”.

With EASNCFAIRHFENKFAVETLICRQDGRVRGMPPW as the sequence, how does the amyloid nucleation score read?
The amyloid nucleation score was “inactive”.

Which amyloid nucleation score does the source give for EASNCFAIRHFENKFAVETLICRQGGVLEACWKV here?
The amyloid nucleation score was “inactive”.

For EASNCFAIRHFENKFAVETLICRQLRISVSSLWE, which amyloid nucleation score is on record?
Its amyloid nucleation score is “inactive”.

Which amyloid nucleation score does the source give for EASNCFAIRHFENKFAVETLICRQMRSSICGSYG here?
The amyloid nucleation score was “inactive”.

For EASNCFAIRHFENKFAVETLICRQMTNDETYSTK, which amyloid nucleation score is on record?
The amyloid nucleation score was “inactive”.

For EASNCFAIRHFENKFAVETLICRQNAELSSNESK, which amyloid nucleation score is on record?
The amyloid nucleation score was 0.328.

Which amyloid nucleation score does the source give for EASNCFAIRHFENKFAVETLICRQSRGRC here?
Its amyloid nucleation score is “inactive”.

Which amyloid nucleation score does the source give for EASNCFAIRHFENKFAVETLICRQSYKPWGLLGN here?
Its amyloid nucleation score is 1.99.

With EASNCFAIRHFENKFAVETLICRRATSRLGNEF as the sequence, how does the amyloid nucleation score read?
Its amyloid nucleation score is -0.158.

Which amyloid nucleation score does the source give for EASNCFAIRHFENKFAVETLICRRCALARSKGKV here?
The amyloid nucleation score was “inactive”.

Which amyloid nucleation score does the source give for EASNCFAIRHFENKFAVETLICRRCVGEVLEEQL here?
Its amyloid nucleation score is 0.649.

For EASNCFAIRHFENKFAVETLICRRDMSTPFGEVS, which amyloid nucleation score is on record?
Its amyloid nucleation score is “inactive”.

With EASNCFAIRHFENKFAVETLICRRELNLSMGASR as the sequence, how does the amyloid nucleation score read?
Its amyloid nucleation score is “inactive”.

Which amyloid nucleation score does the source give for EASNCFAIRHFENKFAVETLICRRGFNSMCWW here?
Its amyloid nucleation score is “inactive”.

With EASNCFAIRHFENKFAVETLICRRGTASKKKRG as the sequence, how does the amyloid nucleation score read?
Its amyloid nucleation score is “inactive”.

With EASNCFAIRHFENKFAVETLICRRGYPIFAGRLG as the sequence, how does the amyloid nucleation score read?
The amyloid nucleation score was “inactive”.
